# Source: PubChem BioAssay AID1345082 (National Center for Advancing Translational Sciences (NCATS), 2018)
# About 4,000 (4.3%) of roughly 94,000 compounds were called active. Inconclusive results, whose numbers are uncertain, are shown with a selection of clear calls. Calls come from the whole dose curve; as a rule, active = well fitted inhibition curve with a large enough effect; inconclusive = small, poorly fitted or top-dose-only effect; inactive = no such curve, though single readings can be large or run the other way. Potencies of inconclusive entries are doubtful fits and often do not repeat.
# Test: Cytotoxic Profiling in NIH 3T3 Cell Line of Diverse Libraries Using Quantitative High-Throughput Screening; note: nearly all actives have a fitted effect of over 55% in size
# Conditions: NIH 3T3 viability, CellTiter-Glo ATP luminescence, 48-72 h; activity change, negative = cytotoxicity: at 96.7 µM (top of the series) unless noted; series mostly up to 96.7 µM
# Summary of the method: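 ATP-dependent luminescence (CellTiter-Glo) served as the viability signal for NIH 3T3 cells treated with compound for 48 or 72 hr at 37 °C.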
# % is set by controls: 0 for no effect and ±100 for the full control effect; potency is the fitted concentration of half-maximal effect; tags give direction and shape of the fitted curve.
SMILES,Potency,"activity change, negative = cytotoxicity",outcome
COc1ccc(C(=O)N[C@H]2CO[C@H]3[C@@H]2OC[C@@H]3n2cc(-c3ccccc3)nn2)cc1,"inconclusive: 70.8 µM [inhibitor, partial curve, poor fit]",–,–
CN(CC1CCOC1)C(=O)NC1CCCCC1 (configuration not stated),–,inactive: -7.55%,–
Cc1nn(-c2ccc(F)cc2)c(Oc2ccccc2F)c1CCC(=O)NCc1ccco1,active: 35.5 µM,–,–
O=C(NC1CCCCC1)c1cc2n(n1)CC(c1ccc(Cl)cc1)OC2 (configuration not stated),"inconclusive: 50.1 µM [inhibitor, partial curve, poor fit]",–,–
O=C(Nc1cccnc1)c1nc2c(o1)CCN(Cc1cccs1)CC2,"inconclusive: 50.1 µM [inhibitor, partial curve, poor fit]",–,–
CCOc1ccccc1C(=O)N[C@@H]1CN(Cc2ccncc2)C[C@H]1CN(C)C,"inconclusive: 79.4 µM [inhibitor, single point]",–,–
COc1ccc(C)cc1NC(=O)NCC1CCCN(C(C)C)C1 (configuration not stated),–,inactive: -0.547%,–
N[C@H]1[C@H](O)[C@@H](N2CCC(Cc3ccccc3)CC2)[C@@H]2OC[C@H]1O2,"inconclusive: 100 µM [inhibitor, partial curve, poor fit]",–,–
COc1ccccc1-c1ccc2ncn(-c3ccc(F)cc3F)c(=O)c2n1,"inconclusive: 100 µM [inhibitor, partial curve, poor fit]",–,–
COc1ccc(Cl)cc1C(=O)N1CCC(Oc2nccnc2N(C)C)C1 (configuration not stated),–,–,inactive
CC(C)CNC(=O)CC(c1cccc([N+](=O)[O-])c1)c1c[nH]c2ccccc12 (configuration not stated),"inconclusive: 50.1 µM [inhibitor, single point]",–,–
Cc1ccc(CN2CC3(COCC2=O)CN(c2ccccc2)C3)cc1C,"inconclusive: 89.1 µM [inhibitor, partial curve]",–,–
N#Cc1cccc(-c2ncc3c(n2)OCCN(Cc2ccc(F)cc2F)C3=O)c1,–,–,inactive [at 138 µM]
CC(C)CCN1CCC(C2CCN(C(=O)c3ccncc3)CC2)C1 (configuration not stated),–,inactive: -3.35%,–
COc1ccccc1-c1nc(-c2c(C)noc2C)cc2cc(CN(C)C)oc12,"inconclusive: 20 µM [inhibitor, full curve, poor fit]",–,–
COCC1CN(C2CCC2)CC12CCN(Cc1ccc(OC)c(OC)c1)CC2 (configuration not stated),"inconclusive: 50.1 µM [inhibitor, partial curve, poor fit]",–,–
COc1ccc(CCCNc2cc(C3CC(O)C3)ncn2)cc1 (configuration not stated),–,inactive: -27.1%,–
CCOC(=O)C1(Cc2cccc(OC)c2)CCNCC1,–,inactive: -5.72%,–
O=C(C1CC=CCC1)N1CCc2[nH]nc(-c3ccc(C(F)(F)F)cc3)c2C1 (configuration not stated),"inconclusive: 79.4 µM [inhibitor, partial curve, poor fit]",–,–
COc1ccc(CN2CCCC(c3cc(=O)[nH]c(C)n3)C2)c(OC)c1C (configuration not stated),"inconclusive: 15.8 µM [inhibitor, full curve, poor fit]",–,–
Cc1cccc(C(=O)N2CCCC2c2nc(C3CCOCC3)no2)c1 (configuration not stated),–,inactive: -25.4%,–

SMILES,Potency,"activity change, negative = cytotoxicity",outcome
CCOc1ccccc1C1NC(=O)N(CC(=O)Nc2ccc(Cl)cc2F)C2=C1C(=O)OC2 (configuration not stated),"inconclusive: 70.8 µM [inhibitor, single point]",–,–
COCCn1ncc(N2CCCC(CC(=O)N(C)CCc3ccccn3)C2)cc1=O (configuration not stated),–,inactive: 2.19%,–
CCC1Oc2ccc(NC(=O)c3ccc(C#N)cc3)cc2CN(Cc2ccccc2F)C1=O (configuration not stated),"inconclusive: 44.7 µM [inhibitor, partial curve, poor fit]",–,–
O=C1C(N2CCN(S(=O)(=O)c3cccs3)CC2)CCN1Cc1cccnc1 (configuration not stated),–,inactive: -3.37%,–
COc1ccc(OC)c(CN2CCCn3nc(C)c(-c4cccnc4N4CCOCC4)c32)c1,"inconclusive: 50.1 µM [inhibitor, partial curve, poor fit]",–,–
COc1ccc(Cl)cc1C(=O)N1CCCN(c2cc(-c3ccc(F)cc3)[nH]n2)CC1,"inconclusive: 44.7 µM [inhibitor, partial curve, poor fit]",–,–
CC(=O)N1CCC2(CC1)CN(C(=O)c1ccc(Cl)cc1)CCO2,–,–,inactive
O=C(Cn1cccc1-c1nc(-c2ccccc2)no1)N1CCc2ccccc21,"inconclusive: 50.1 µM [inhibitor, partial curve, poor fit]",–,–
O=C(C[C@@H]1CCNC[C@@H]1Cc1cc(CSc2ccccc2)on1)NCc1ccc(F)cc1,"inconclusive: 89.1 µM [inhibitor, single point]",–,–
C[S+](=O)([O-])N1Cc2ccccc2CC2(CCCCN2CC2CCNCC2)C1 (configuration not stated),–,inactive: -7.55%,–
O=C(N[C@H](c1ccccn1)C1CC(O)C1)C1(c2ccc(Cl)cc2)CCC1 (some centres not stated),–,inactive: -19.1%,–
Cc1ccccc1C(=O)N(C)C(C)c1cccs1 (configuration not stated),–,inactive: -23.1% [at 138 µM],–
Cc1noc(-c2ccn3c(CNC(=O)c4ccccc4Cl)nnc3c2)n1,"inconclusive: 56.2 µM [inhibitor, partial curve, poor fit]",–,–
Cc1ccccc1N(C)C1CN([S+](=O)([O-])c2ccccc2)C1,"inconclusive: 56.2 µM [inhibitor, partial curve, poor fit]",–,–
CC1(C(=O)N2C[C@@H](Oc3cccnc3)C[C@H]2C(=O)N2CCCC2)CCCCC1,"inconclusive: 70.8 µM [inhibitor, single point]",–,–
Cc1ccccc1-c1cn(C)c(=O)n2cc(COc3ccc(Cl)cc3)nc12,"inconclusive: 39.8 µM [inhibitor, full curve]",–,–
CC(=O)Nc1ccc(NC(=O)Cn2ccn3nc(-c4ccc(F)cc4)c(CO)c3c2=O)cc1,–,–,inactive
CC1=C[C@@H](CNC(=O)C(C)(C)C)[C@H](C(C)C)C[C@H]1Cc1nnc(-c2ccccc2F)o1,"inconclusive: 39.8 µM [inhibitor, partial curve, poor fit]",–,–
O=[S+]1([O-])NCC2(CCN(Cc3ccc(OC(F)(F)F)cc3)CC2)Nc2ccccc21,"inconclusive: 50.1 µM [inhibitor, partial curve, poor fit]",–,–
COc1ccc(-c2cnc(NC(=O)Cc3ccc(F)cc3)c3c2CCO3)cn1,"inconclusive: 70.8 µM [inhibitor, partial curve, poor fit]",–,–
CS(=O)(=O)N1CCCN(C(=O)Cc2ccc(OC(F)(F)F)cc2)c2ccccc21,"inconclusive: 50.1 µM [inhibitor, partial curve, poor fit]",–,–
